# From the supplement of paper PMC12217912
# The list shows a part of the results. The full chains were built here from the parent and the listed change. Values near 0.05 are background.
# B1: TEV protease; numbered along this chain (parent)
# chain: MGESLFKGPRDYNPISSSICHLTNESDGHTTSLYGIGFGPFIITNKHLFRRNNGTLVVQSLHGVFKVKDTTTLQQHLVDGRDMIIIRMPKDFPPFPQKLKFREPQREERICLVTTNFQTKSMSSMVSDTSCTFPSGDGIFWKHWIQTKDGQCGSPLVSTRDGFIVGIHSASNFTNTNNYFTSVPKNFMELLTNQEAQQWVSGWRLNADSVLWGGHKVFMVKPEEPFQPVKEATQL
# Variants of: B1
# Test: raw area under fraction-flipped curve 0-4 h after induction (AUC4h, not background-subtracted), DNA-recorder readout of cleavage of the substrate (dimensionless); higher = more cleavage of the substrate by the protease variant
# Settings: temperature: 34 °C; time window: 0-4 h after rhamnose induction
# Experimental: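 In vivo DNA recorder in E. coli TOP10(DE3) ΔrhaA at 34 °C. Each TEVp single-site mutant (parent TEVp 0) is paired with a single-site variant of the 7-mer TEVs (canonical ENLYFQ|S). The substrate sits between flexible linkers in a Bxb1-sfGFP-TEVs-SsrA fusion, so cleavage stabilises Bxb1 and speeds flipping of a recombination array, read by NGS. The value is the raw area under the fraction-flipped curve over 0-4 h after rhamnose induction (AUC4h), with ≥20 reads per time point. It is not background-subtracted; inactive controls average about 0.047.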
# 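Also: Bxb1 expression induced with 0.2% (w/v) L-rhamnose at OD600 near 0.5, cultures sampled hourly, flipped fraction per protease–substrate barcode pair counted by paired-end Illumina sequencing.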
Variant,area with substrate ENLYFAS,area with substrate ENLYFCS,area with substrate ENLYFDS,area with substrate ENLYFES,area with substrate ENLYFGS,area with substrate ENLYFHS,area with substrate ENLYFIS,area with substrate ENLYFLS,area with substrate ENLYFMS,area with substrate ENLYFPS,area with substrate ENLYFSS,area with substrate ENLYFWS,area with substrate ENLYFYS,area with substrate ENLYFFS,area with substrate ENLYFKS,area with substrate ENLYFNS,area with substrate ENLYFRS,area with substrate ENLYFTS,area with substrate ENLYFVS
N13Y,0.0661,0.063,0.0635,0.0694,0.0569,0.0646,0.0576,0.0567,0.0605,0.0553,0.0585,0.056,0.0691,,,,,,
P14G,0.0508,0.051,0.0584,,0.0539,,0.0666,,0.0737,0.061,,0.0638,0.0917,0.0646,0.0686,0.0402,0.0548,0.0592,
P14N,0.0561,,0.064,0.0769,0.0554,0.0683,0.063,0.076,0.0641,0.063,0.068,0.057,0.0457,0.0731,0.0624,,0.0407,0.0747,0.0608
I15H,0.0873,0.0592,0.0677,,0.0627,0.0652,0.0545,0.0582,0.0641,0.054,0.0568,,0.0571,0.067,0.0563,0.0545,,,0.0411
S18E,0.0589,0.0437,0.0561,0.0574,,0.0875,0.0524,,0.06,0.0588,0.0608,,0.0596,0.051,0.0563,0.0653,0.0479,0.0419,
S18W,0.0627,0.0552,,0.0548,0.0641,0.0539,0.0495,,0.0387,0.0511,,0.0357,0.056,0.064,0.0506,0.0554,0.0531,,
I19M,0.0477,0,0.0568,0.0677,0.0617,0.0568,0.0536,,0.0745,0.0656,0.0574,0.0511,0.0737,,0.0627,0.0654,0.0479,0.0619,0.0675
C20P,0.0512,0.0499,,0.0531,,0.0537,0.0474,0.0374,0.0537,0.0514,0.0354,0.0351,,0.0577,0.0517,,0.0609,0.0518,0.0486
H21L,0.0456,0.0638,0.0452,0.0714,,0.0612,0.0476,0.0695,0.0747,,,,0.064,0.068,0.0619,,,0.0606,0.0292
H21R,0.0663,0.0262,0.0884,0.0647,,0.0492,0.0596,0.0603,0.0594,0.0492,0.0625,0.0547,,0.069,0.0608,0.066,,0.0585,0.0539
L22N,0.044,0.0579,,0.0653,,,0.0553,0.0499,0.0527,0.0569,,0.038,,0.0643,0.0486,,0.0427,0.0524,
T23H,0.0639,0.0583,0.0621,,,,0.0477,0.0586,0.0642,0.0633,,0.0517,0.0593,0.0609,0.0617,0.0688,,0.0481,
